Reference: PubChem BioAssay AID504339 (National Center for Advancing Translational Sciences (NCATS), 2011)
The whole screen tested about 390,000 compounds, of which about 17,000 (4.4%) were called active. Inconclusive means that the source gave no clear call. Such entries were picked first, then a sample of the others. Calls come from the whole dose curve; as a rule, active = well fitted inhibition curve with a large enough effect; inconclusive = small, poorly fitted or top-dose-only effect; inactive = no such curve, though single readings can be large or run the other way. A potency beside an inconclusive call is a rough fit, not a confirmed value.

biological target: Lysine-specific demethylase 4A (Homo sapiens) (UniProt O75164); experiment: qHTS Assay for Inhibitors of JMJD2A-Tudor Domain; settings: AlphaScreen JMJD2A-Tudor / H3K4me3 peptide binding; activity change, negative = inhibition: at 114 µM (top of the series); note: nearly all actives have a fitted effect of over 50% in size
% is set by controls: 0 for no effect and ±100 for the full control effect; potency is the fitted concentration of half-maximal effect; tags give direction and shape of the fitted curve.

Chain of UniProt O75164 (O75164 whole entry, looked up, the tested form may be a part): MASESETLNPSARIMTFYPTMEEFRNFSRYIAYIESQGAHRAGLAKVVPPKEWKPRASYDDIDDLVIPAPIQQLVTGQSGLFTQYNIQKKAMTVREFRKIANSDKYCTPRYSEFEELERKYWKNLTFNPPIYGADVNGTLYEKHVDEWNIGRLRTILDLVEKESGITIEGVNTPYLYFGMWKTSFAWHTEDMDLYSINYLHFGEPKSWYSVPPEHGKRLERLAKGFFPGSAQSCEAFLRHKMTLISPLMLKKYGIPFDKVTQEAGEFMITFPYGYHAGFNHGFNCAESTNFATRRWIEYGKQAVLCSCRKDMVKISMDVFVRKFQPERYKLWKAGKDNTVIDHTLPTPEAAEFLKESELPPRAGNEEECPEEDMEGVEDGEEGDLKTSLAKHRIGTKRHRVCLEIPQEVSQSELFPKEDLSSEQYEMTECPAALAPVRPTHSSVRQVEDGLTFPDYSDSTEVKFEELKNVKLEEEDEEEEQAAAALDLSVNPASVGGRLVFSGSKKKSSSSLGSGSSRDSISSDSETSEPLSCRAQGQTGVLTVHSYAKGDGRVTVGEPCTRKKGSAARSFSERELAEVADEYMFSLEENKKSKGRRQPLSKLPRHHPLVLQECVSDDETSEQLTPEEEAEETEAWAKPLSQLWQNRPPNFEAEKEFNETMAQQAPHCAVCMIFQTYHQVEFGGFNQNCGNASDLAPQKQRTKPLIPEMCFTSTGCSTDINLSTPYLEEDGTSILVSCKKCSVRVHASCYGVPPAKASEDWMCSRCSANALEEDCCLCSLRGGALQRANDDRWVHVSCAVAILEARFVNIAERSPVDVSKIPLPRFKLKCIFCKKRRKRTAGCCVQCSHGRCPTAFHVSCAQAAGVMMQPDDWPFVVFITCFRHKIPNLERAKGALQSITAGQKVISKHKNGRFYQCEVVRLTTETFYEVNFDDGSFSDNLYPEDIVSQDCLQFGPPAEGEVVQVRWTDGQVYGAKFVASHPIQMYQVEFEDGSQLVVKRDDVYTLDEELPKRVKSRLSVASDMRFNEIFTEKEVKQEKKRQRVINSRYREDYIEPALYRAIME

Row | SMILES | Potency | activity change, negative = inhibition
1 | Cc1ccc(C(C[N+](=O)[O-])n2nc(C)cc2C)cc1 (centres undefined) | inactive | –
2 | CC1CN(C2CCCCC2)C(=S)NC1=O (centres undefined) | inactive | –
3 | C[C@H]1CN([C@@H](C)CO)C(=O)c2cccc(NC(=O)c3ccncc3)c2O[C@H]1CN(C)C(=O)Nc1ccccc1 | inconclusive: 28.2 µM [inhibitor, single point] | –
4 | COc1cccc(-c2nc(CS(=O)CC(=O)NCc3ccc4c(c3)OCO4)c(C)o2)c1 (centres undefined) | inactive | –
5 | Cc1c(NS(=O)(=O)c2cc(C(=O)NCCN(C)C)ccc2Cl)c(=O)n(-c2ccccc2)n1C | inconclusive: 50.1 µM [inhibitor, partial curve, poor fit] | –
6 | Cc1ccc(C(=O)c2sc(Nc3ccccc3)c(C#N)c2N)cc1 | – | inconclusive: -100% [inhibitor]
7 | CC(C)(C)C1=CC(=O)C(=O)C(C(C)(C)C)=C1 | active: 17.8 µM | –
8 | CC(=O)Nc1ccc(NC(=O)C(C)OC(=O)CCCOc2ccc(Cl)cc2C)cc1 (centres undefined) | inactive | –
9 | COc1ccc(Cl)c2sc(N(CCN(C)C)C(=O)C3=COCCO3)nc12 | inactive | –
10 | O=C(N/N=C/c1ccccc1O)c1ccncc1 | active: 50.1 µM | –
11 | Cn1cccc1-c1cc(C(=O)N/N=C/c2cccc(O)c2)[nH]n1 | inconclusive: 31.6 µM [inhibitor, partial curve] | –
12 | COC(=O)C(CC(=O)c1ccc(C)cc1)n1cccn1 (centres undefined) | inactive | –
13 | CCCCC#Cc1ccc(C(=O)NNC(=O)Nc2ccccc2)o1 | inconclusive: 56.2 µM [inhibitor, partial curve] | –
14 | CCCNC(=O)CN1C(=O)c2cccnc2Sc2ccccc21 | inactive | –
15 | CC1=CC(C)(C)N(S(=O)(=O)c2ccc(C)cc2)c2ccc(C)cc21 | inactive | –
16 | COCCNC(=O)/C(C#N)=C/c1c(N2CCN(c3ccccc3)CC2)nc2c(C)cccn2c1=O | inconclusive: 44.7 µM [inhibitor, partial curve] | –
17 | Cc1ccc(C(=O)O)cc1NC(=O)CCc1ccccc1 | inconclusive: 14.1 µM [inhibitor, partial curve, poor fit] | –
18 | Cc1ccc(NC(=O)c2ccc3nc[nH]c3c2)nc1 | inconclusive: 56.2 µM [inhibitor, partial curve, poor fit] | –
19 | CC[C@@]1(C(=O)OC)N[C@H](CN(C)C(=O)Nc2ccc(OC)cc2)[C@@H]2C(=O)N(C)C(=O)[C@@H]21 | inactive | –
20 | CC(=O)c1cc(-c2ccccc2)n(CCC(=O)Nc2cc(C)cc(C)c2)c1C | inconclusive: 50.1 µM [inhibitor, partial curve] | –
21 | CCOc1ccc(C(=O)N/N=C(/C)C2C(=O)c3ccccc3C2=O)cc1 | active: 35.5 µM | –
22 | O=C(NC(=S)N1CCCc2ccccc21)c1ccc(Br)cc1 | inconclusive: 63.1 µM [inhibitor, single point] | –
23 | Cn1c(=O)c2[nH]c(-c3ccc(S(=O)(=O)O)cc3)nc2n(C)c1=O | inconclusive: 79.4 µM [inhibitor, single point] | –

Row | SMILES | Potency | activity change, negative = inhibition
24 | COc1ccc(Cl)cc1NC(=S)N(CCCN1CCOCC1)Cc1cn(C)c2ccccc12 | inconclusive: 56.2 µM [inhibitor, partial curve] | –
25 | Cc1ccccc1C(=O)Nc1cccc(C(=O)N/N=C/c2ccccn2)c1 | inconclusive: 11.2 µM [inhibitor, partial curve] | –
26 | CC(C)c1cc(C(C)C)c(S(=O)(=O)Nc2cccc3cccnc23)c(C(C)C)c1 | inactive | –
27 | CSc1ccccc1NC(=O)CN(C)Cc1c(O)ccc2ccccc12 | active: 56.2 µM | –
28 | CC(C)(C)NC(=O)COc1ccc(CNCc2ccccn2)cc1 | active: 56.2 µM | –
29 | COc1cccc(/C(C#N)=C/c2c(-c3ccc(Cl)cc3)nc3c(C)cccn23)c1 | inconclusive: 11.2 µM [inhibitor, full curve] | –
30 | CCn1c(CCNC(=O)c2ccc(Cl)cc2Cl)n[nH]c1=S | active: 7.08 µM | –
31 | CC(=O)C1=C(C)NC(SCC(=O)c2ccc(Cl)cc2)=C(C#N)C1CC(C)C (centres undefined) | inconclusive: 39.8 µM [inhibitor, single point] | –
32 | COC(=O)c1ccc(NC2(C#N)C(=O)Nc3ccccc32)cc1 (centres undefined) | inactive | –
33 | C/C(=N/NC(=O)C1CCCCC1)c1ccc([N+](=O)[O-])cc1 | inactive | –
34 | COc1ccc(N=C2C(=Nc3ccc(OC)cc3)N(c3ccc(OC)cc3)C(=S)N2C(=O)c2ccc(OC)cc2)cc1 | inconclusive: 1.41 µM [inhibitor, full curve] | –
35 | COc1ccccc1NC(=O)CN1CCC(n2nnc3cc(F)ccc32)CC1 | inactive | –
36 | O=[N+]([O-])c1ccc(-c2cnc(SC(c3ccccc3)c3ccccc3)[nH]2)cc1 | inconclusive: 22.4 µM [inhibitor, partial curve] | –
37 | CCOCC(=O)Nc1nnc(COc2ccc(Cl)cc2)s1 | inconclusive: 63.1 µM [inhibitor, partial curve] | –
38 | COc1cccc(OC)c1C(=O)Nc1ccc2c(c1)CCCN2S(=O)(=O)c1ccc(C)cc1 | inconclusive: 20 µM [inhibitor, partial curve] | –
39 | Cn1nc(C(F)(F)F)c(-c2ccccc2)c1NC(=O)c1nccnc1C(=O)O | inconclusive: 25.1 µM [inhibitor, full curve] | –
40 | COc1ccccc1N(C(=O)c1ccncc1)c1nc(-c2ccc([N+](=O)[O-])cc2)cs1 | – | inconclusive: -46.7% [inhibitor]
41 | COC(=O)c1ccc(Sc2nnnn2-c2ccccc2)c([N+](=O)[O-])c1 | inconclusive: 79.4 µM [inhibitor, partial curve] | –
42 | COc1ccc(Nc2c([N+](=O)[O-])ccc3c2=NC2(CCCCC2)N=3)cc1 | active: 15.8 µM | –
43 | CCOC(=O)N1CCN(C(=O)CN(c2ccc(C)cc2C)S(=O)(=O)c2ccccc2)CC1 | inactive | –
44 | CCOC(=O)c1c(C)[nH]c(C)c1S(=O)(=O)N(C)CC(=O)N1CCN(c2ccccc2OC)CC1 | inactive | –
45 | O=C(CN1CCCCCCC1)N/N=C/c1ccc(F)cc1F | inconclusive: 1.41 µM [inhibitor, partial curve, poor fit] | –
46 | Cc1cc(C)c(/C=C/c2onc(C)c2S(=O)(=O)N2CCC(C(=O)NCc3ccco3)CC2)c(C)c1 | inactive | –

Row | SMILES | Potency | activity change, negative = inhibition
47 | COc1ccc(/C=C(\NC(=O)c2ccco2)C(=O)N2CCOCC2)cc1 | inconclusive: 0.708 µM [inhibitor, full curve] | –
48 | Cc1cc(C)c2nc(NNC(=O)c3cc(-c4cccs4)nc4ccccc34)sc2c1 | inconclusive: 2.24 µM [inhibitor, full curve, poor fit] | –
49 | O=C(NNC1=NCCC1)c1cccc(S(=O)(=O)N2CCOCC2)c1 | inconclusive: 89.1 µM [inhibitor, partial curve, poor fit] | –
50 | O=C(c1cc(-c2ccc(O)cc2)on1)N1CCN(c2ccc(F)cc2)CC1 | inconclusive: 56.2 µM [inhibitor, partial curve] | –
51 | CC(C)(C)NC(=O)C(=O)NNC(=O)C12CC3CC(CC(C3)C1)C2 | inconclusive: 12.6 µM [inhibitor, partial curve] | –
52 | CCOC(=O)Cc1ccc(NCc2ccc(Cl)cc2)cc1 | inconclusive: 17.8 µM [inhibitor, full curve, poor fit] | –
53 | COCCCNC(=O)/C(C#N)=C/c1c(N2CCN(c3ccc(OC)cc3)CC2)nc2c(C)cccn2c1=O | inconclusive: 28.2 µM [inhibitor, full curve] | –
54 | CC(=O)c1cccc(Nc2nc(-c3sc(N)nc3C)cs2)c1 | inconclusive: 56.2 µM [inhibitor, partial curve, poor fit] | –
55 | O=C(COc1cccc2cccnc12)N/N=C1\SCC(=O)N1Cc1ccco1 | inconclusive: 79.4 µM [inhibitor, single point] | –
56 | O=C1c2[nH]nc(-c3ccccc3O)c2C(c2cccc(Cl)c2)N1Cc1ccco1 (centres undefined) | inconclusive: 39.8 µM [inhibitor, partial curve] | –
57 | CCc1ccc(C(=O)NNC(=O)c2cccc(S(=O)(=O)N3CCN(C)CC3)c2)cc1 | inactive | –
58 | Cc1ccc(Nc2nc(N)c([N+](=O)[O-])c(N3CCC(C)CC3)n2)cc1C | active: 56.2 µM | –
59 | O=[N+]([O-])c1ccc(-c2n(-c3ccccn3)c3ccccc3[n+]2-c2ccccn2)cc1 | inconclusive: 12.6 µM [inhibitor, partial curve] | –
60 | COc1ccc(Br)cc1C1CC(=O)N2CN(C)CSC2=C1C#N (centres undefined) | inconclusive: 70.8 µM [inhibitor, single point] | –
61 | CCC(C)[C@H](NC(=O)N1CC(=O)Nc2ccccc21)C(=O)N1CCC[C@@H]1C(=O)O (some centres undefined) | inconclusive: 89.1 µM [inhibitor, single point] | –
62 | COc1ccc(C2C=C(C34CC5CC(CC(C5)C3)C4)NC(=S)N2)cc1OC (centres undefined) | inconclusive: 31.6 µM [inhibitor, full curve] | –
63 | CC(NCc1ccco1)C(=O)N1CCc2ccccc2C1 (centres undefined) | active: 11.2 µM | –
64 | CC(C)Cn1c(-c2csc(C(C)C)c2)n[nH]c1=S | inconclusive: 50.1 µM [inhibitor, partial curve, poor fit] | –
65 | C=CCn1c(SC(C)C(=O)NC2CC2)nnc1-c1ccoc1C (centres undefined) | inactive | –
66 | CCCCNC(=O)CSc1nc2ccccc2nc1Cc1ccc(Cl)cc1 | inactive | –
67 | Cc1ccc(NC(=O)CC2Nc3cccc4cccc(c34)NC2=O)cc1 (centres undefined) | inconclusive: 56.2 µM [inhibitor, partial curve] | –
68 | CC(C)C(NS(=O)(=O)c1ccccc1F)C(=O)N1CCc2ccccc2C1 (centres undefined) | inconclusive: 1.41 µM [inhibitor, full curve, poor fit] | –
69 | COc1ccc(C2=Nc3ccc(C)cc3NC(c3ccc(Cl)cc3)=N2)cc1 | inactive | –
